Hit rate of the full screen: of about 150,000 compounds, about 540 (0.36%) showed an effect of 50% or more. The list shows a part of the results.
The compounds below were run on Plasmodium falciparum (assay: Primary screen in NF54 nanoGlo assay, in single point, at 2uM, 72h; a lower Z score goes with more inhibition). Conditions: timepoint 72 hour.
Format: functional, Erythrocyte

SMILES | % Inhibition | Z score
CN(C)CCNCc1ccc(F)cc1F | -7% | 1.23
Cc1cnc([C@H](C)N2CCC(NS(=O)(=O)c3cccs3)CC2)cn1 | -1% | 0.12
Cc1c(Cl)cccc1NC(=O)c1cc2nccc(-c3cnn(C)c3C)n2n1 | -12% | 1.6
Cc1cccc(NC(=O)c2cccnc2-c2cccs2)c1C | -7% | 1.09
CNc1nc(C)cc(C(=O)N2CC3(CCCCC3)[C@@H]2C(C)C)n1 | -9% | 1.34
O=C(Cn1cncn1)N(c1nc2ccccc2o1)C1CC1 | 10% | -1.89
CC[C@H](C)n1nc(NC(=O)N2CCC3(CCNCC3)C2)cc1C | -7% | 1.02
c1nc(NCc2ccc3c(c2)COC3)c2cn[nH]c2n1 | -4% | 0.7
CCN1CCN(c2ccc(C(=O)Nc3cccc(-c4ccc5c(c4)CCO5)c3)cc2F)CC1 | 18% | -2.82
CC(C)(C(=O)NCC[C@H]1CCOC1)N1CCCC1 | -1% | 0.08
CCN(CC)c1nc(-c2ccccc2)c2ccc(Cl)cc2n1 | 7% | -0.95
CCc1c(N2CCN(c3ccccc3)CC2)[nH]c(=O)[nH]c1=O | 31% | -3.96
Cc1ccc(C)c(-c2ccc3nc(-c4ccc(Cl)cc4)c(CN4CCN(C(=O)C5CCCC5)CC4)n3c2)c1 | -16% | 1.59
Nc1ncnc(N2CCC[C@H](CNC(=O)c3ccccc3)C2)c1Cl | 1% | -0.15
COc1c(C)cnc(COc2c(C)nn(C)c2C)c1C | -4% | 0.57
CN1CC[C@@]2(CCCN(C(=O)c3ccc(-c4ccccc4)[nH]3)C2)C1 | 16% | -2.06
CCOc1ncccc1CNC(=O)c1cccnc1O | 3% | -0.37
O=C(NC[C@H](O)c1cccnc1)c1ncoc1C1CC1 | -7% | 0.94
CC(C)CO[C@@H](C)C(=O)NCCCc1nc(-c2ccccn2)cs1 | -11% | 1.18
COCCC(C)(C)NC(=O)c1ccc(O)cc1F | -7% | 1.21
CC(C)c1cc(C(=O)N(Cc2ccco2)C2CCN(C)CC2)on1 | -2% | 0.25
Cc1c(NS(=O)(=O)c2ccc(Cl)cc2)c(-n2cnnc2)nn1C | 39% | -5.22

SMILES | % Inhibition | Z score
Cc1ocnc1C(=O)Nc1ccc(Oc2nncc3ccccc23)cc1 | -6% | 0.83
Cn1ncc(Br)c1C(=O)N1CCc2ccccc2C1 | 35% | -1.06
Cc1sc(C(=O)NC[C@@H](C)O)cc1CS(C)(=O)=O | -15% | 2.01
O=C(N[C@@H]1COC2(CCCCC2)C1)c1ccc2c(c1)OCO2 | -10% | 0.93
O=C(CCc1cscn1)Nc1cc(CCc2ccccc2)n[nH]1 | -12% | 2.31
Cc1ccc(-c2nn(-c3ccccc3)cc2C(=O)N(C)Cc2nc3ccccc3c(=O)[nH]2)o1 | -4% | 0.5
O=S(=O)(Cc1ccccc1)NCCn1ccnc1-c1ncccn1 | -14% | 1.76
Cc1cccc(-c2noc(CCc3nc4ccccc4o3)n2)c1F | 4% | -0.56
CCOC(=O)Cn1nc2c(S(=O)(=O)N3CCCCCC3)cccn2c1=O | 0% | 0.06
Cc1cccc(S(=O)(=O)Nc2cccc(CCc3nc4ccccc4n3C)c2)c1 | -8% | 0.99
CC1(C)O[C@@H]2C[C@@](OCc3ccccc3C#N)(C(=O)NCC3CC3)CC(OCc3ccccc3F)[C@@H]2O1 (stereo not given in full) | -6% | 0.7
COCCN1C(=O)CC(CC(=O)N(CC2CCC2)CC2CCCO2)(c2ccccc2F)C1=O (stereo not given) | -3% | 0.54
CCN(C)C(=O)c1cccc(Nc2c(Oc3ccccc3F)cnn(-c3ccc(C)cc3)c2=O)c1 | -9% | 1.14
Cc1nc(N(C)C)c(C#N)c(C)c1Br | -9% | 1.79
O=C(NCCN1C(=O)COC1=O)c1cncc(F)c1 | 7% | -0.97
CN(Cc1ccccc1)C(=O)C[C@@H]1O[C@H](CNS(=O)(=O)c2ccccc2)[C@@H](O)[C@H]1O | 3% | -0.55
O=C(c1ccc2c(c1)OCO2)N1CC(N2C(=O)CNC2=O)C1 | -9% | 1.75
NC(=O)[C@]1(NC(=O)c2coc3cc(F)ccc23)CCOC1 | -13% | 2.1
O=C1C[C@H](c2noc(-c3onc4c3CCCC4)n2)CN1C1CC1 | 1% | -0.13
CN(C)C(=O)N1CCC2(CC1)CC(=O)N(Cc1ccc(F)c(F)c1)C2 | 2% | -0.42
Cn1cc(CCN2CCC3(CCC(=O)N(CCc4ccncc4)C3)CC2)cn1 | 1% | -0.09
CO[C@@]12CC[C@@H](O)C[C@@H]1N(C(=O)CCOc1ccccc1C)CC2 | -24% | 2.41

SMILES | % Inhibition | Z score
Cc1ncsc1C(=O)NC[C@H](O)C(=O)OCc1ccccc1 | -10% | 0.92
O=C(CCc1nnc2ccc(N3CCCCC3)nn12)Nc1ccccn1 | -12% | 2.05
COc1nc2c(cc1CN(C)[C@@H](C)c1ccc3c(c1)OCCO3)C(=O)N(C(C)C)C2 | -7% | 0.95
Fc1ccccc1N1CCN(Cc2cccn2-c2nnc(N3CCN(C4CCCCC4)CC3)s2)CC1 | 7% | -0.66
O=C(Nc1cc2n(n1)CCNC2)C1NCCC2CCCCC21 (stereo not given) | -2% | 0.39
O=C(c1cc2nccc(-c3ccc(F)cc3)n2n1)N1CCCCCC1 | -1% | 0.16
CCCOC[C@H]1CCN(c2nc(-c3ccncc3)nc3c2CNC3)C1 | 2% | -0.28
CC1CCN(C(=O)CCc2ccco2)CC1 | -15% | 1.71
Cc1ncc(NC(=O)[C@H]2CCc3nncn3C2)cn1 | -5% | 0.75
CN1CC[C@@H](c2nc(CCc3ccc(OC(F)F)cc3)no2)S1(=O)=O | -2% | 0.29
COc1cncc(O[C@H]2CCCN(C(=O)c3c(C)nn(C)c3C)C2)n1 | -8% | 1.4
CCN(CC)S(=O)(=O)c1ccc(NC(=O)C(C)C)cc1 | 0% | 0.05
COc1ccc(CNCc2cc(C(C)C)no2)cc1OC[C@@H](O)CN1CCCCC1 | 5% | -0.72
CC1CN(C(=O)[C@H]2CCCCC2(F)F)C1 | -5% | 0.98
CC(C)c1ccc(Oc2cnn(C)c(=O)c2Nc2ccc(C(=O)N(C)Cc3ccccc3)cc2)cc1 | -5% | 0.64
Nc1nc(NCCCn2ccnn2)cc(C2CC(O)C2)n1 (stereo not given) | 1% | -0.13
Cc1ccc2c(c1C)NC(=O)[C@]21N2CCC[C@H]2[C@@H](C(=O)c2ccccc2Cl)[C@]12C(=O)Nc1ccccc12 | 7% | -0.9
CCCn1cnnc1CNc1nc2ccccc2o1 | -11% | 1.35
COC[C@H](Nc1ccncc1Cl)c1ccc(C)o1 | -3% | 0.44
O=C(NCCc1ccco1)N(Cc1cccnc1)C1CCCCC1 | -4% | 0.56
COCCS(=O)(=O)N1CCCC[C@H]1c1nc(-c2ccccc2)c[nH]1 | -11% | 1.16
CCOCC(=O)NC1CCCC(O)C1 (stereo not given) | -8% | 1.58

SMILES | % Inhibition | Z score
NC(=O)CCn1cnc2c(c1=O)CCC2 | -7% | 1.08
CCN1CC[C@H](NC2CCN(c3ccc(Cl)cc3)CC2)C1 | -13% | 2.18
Cc1nc(CCNC(=O)CN(C)[C@H]2CCS(=O)(=O)C2)nc2c1CCC2 | 0% | -0.02
Cc1cc(S(=O)(=O)N(C)[C@@]2(C#N)CCOC2)sc1C | 10% | -1.89
O=C(Nc1ccc(Br)cc1Br)C1(F)C(F)(F)C(F)(F)C(F)(F)C(F)(F)C1(F)F | 2% | -0.25
CC1(C)NC(=O)N(CCCn2cnc(C#N)c2C#N)C1=O | 0% | 0
O=C(Cn1ccc2ccc(N3CCCCCC3)nc21)NC1CCCC1 | -8% | 1.1
CC[C@@](NC(=O)c1csc(C(C)C)n1)(C(N)=O)C(C)C | -16% | 1.42
CCOC(=O)CCN(C)C(=O)CCC1CN(C(=O)OC(C)(C)C)C1 | -11% | 1.45
COc1ccccc1-c1cnc(CN[C@H]2CCc3ccccc3OC2)o1 | -6% | 0.75
N#Cc1cccc(C(=O)OC2(C3CC3)CC2)c1 | -10% | 1.09
Cc1nn(CCC#N)c(C)c1[C@@H]1C=C[C@@H](NC(=O)Nc2ccc(Cl)cc2)C1 | 34% | -3.86
Cc1cccc(CC(=O)N[C@@H](Cn2nccn2)c2ccccc2)c1 | -8% | 1.19
CCCCn1ncnc1-c1ccc2c(c1)nc(N1CC[C@H](O)C1)n2C | -2% | 0.32
CNC(=O)c1nc[nH]c1-n1nc(C(C)(C)C)cc1C(F)(F)F | -3% | 0.49
Cc1nnc(N(C)Cc2ccc3c(c2)OCO3)c(C#N)c1C | -11% | 2.16
Cc1nc2c(c(=O)n1C)CN(C(=O)c1ccccc1Oc1ccccc1)C2 | -9% | 1.76
NC(Cc1ccccc1)=NO[C@H]1CCN(C2CC2)C1=O | -5% | 0.83
COc1cccc2c1nc(NC(=O)COC1CCN(C)CC1)n2C | -9% | 1.21
